# Laboratory results: PubChem BioAssay AID1745853 (National Center for Advancing Translational Sciences (NCATS), 2022)
# Some of the results follow. These are further read-outs of the screen, such as a control signal, another cell line or another target. No call is given for them.
# How the values were obtained:
# Test in all cases: Primary Screen for Target Class Profiling of Small Molecule Inhibitors of Methyltransferases
# [1] = biological target: Glycine N-methyltransferase (Homo sapiens) (UniProt Q14749); conditions: purified enzyme, MTase-Glo SAH luminescence; measured here: GNMT inhibition; at 40 µM; stronger effect = lower value
# Method in brief: (§1)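 Each enzyme was assayed with SAM and its substrate. SAH formation detected by MTase-Glo luminescence; single-point 40 uM screen[…].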
# [2] = biological target: Guanidinoacetate N-methyltransferase (Homo sapiens) (UniProt Q14353); conditions: purified enzyme, MTase-Glo SAH luminescence; measured here: GAMT inhibition; at 40 µM; stronger effect = lower value
# Method in brief: as §1
# [3] = biological target: Histamine N-methyltransferase (Homo sapiens) (UniProt P50135); conditions: purified enzyme, MTase-Glo SAH luminescence; measured here: HNMT inhibition; at 40 µM; stronger effect = lower value
# Method in brief: as §1
# [4] = biological target: Nicotinamide N-methyltransferase (Homo sapiens) (UniProt P40261); conditions: purified enzyme, MTase-Glo SAH luminescence; measured here: NNMT inhibition; at 40 µM; stronger effect = lower value
# Method in brief: as §1
# [5] = biological target: Phenylethanolamine N-methyltransferase (Homo sapiens) (UniProt P11086); conditions: purified enzyme, MTase-Glo SAH luminescence; measured here: PNMT inhibition; at 40 µM; stronger effect = lower value
# Method in brief: as §1
# % is set by controls: 0 for no effect and ±100 for the full control effect.
Compound,"activity change, negative = inhibition [1] [%]","activity change, negative = inhibition [2] [%]","activity change, negative = inhibition [3] [%]","activity change, negative = inhibition [4] [%]","activity change, negative = inhibition [5] [%]"
O=C(NC1CCCC1)c1ccc(OC2CCN(CCCC(F)(F)F)CC2)c(Cl)c1,-3.02,-6.13,-2.02,-5.56,-4.04
O=C(NCCc1ccccc1)c1ccc2c(=O)nc3c(-c4cccc(C(F)(F)F)c4)n[nH]n3c2c1,-6.84,2.1,1.74,-6.06,-6.41
C/C=C(\C)C(=O)O[C@@H](C)[C@H]1CC[C@]2(O)C3CCC4C[C@@H](OC5CC(OC)C(OC6CC(OC)C(OC7CC(OC)C(OC8OC(C)C(OC9OC(CO)C(O)C(O)C9O)C(OC)C8O)C(C)O7)C(C)O6)C(C)O5)CC[C@]4(C)C3[C@H](O)[C@@H](O)[C@]12C (some centres not stated),4.12,0.894,10.1,-10.8,6.9
COC(=O)c1ncn2c1C(=O)N(Cc1ccc(OC)cc1)C(C)(C(=O)NCCCOC(C)C)C2 (configuration not stated),3.55,3.68,10.6,9.32,9.75
C=C1C2=CC(O)C(C)C1(C)CC/C(C)=C/CCC1(C)OC1C2=O (configuration not stated),0,7.66,8.64,-5.7,2.76
CC(C)[C@H](O)C(=O)N[C@@H](C)C(=O)N[C@@H]1C(=O)N(C)CCc2ccccc21,–,-13.6,–,-27.5,-4.87
CCCC/C=C\CCCCCc1cc(=O)c2ccccc2n1C,-1.12,-2.56,3.65,-18.9,-0.002
CC(C)(C)c1nn2c(SCC(=O)Nc3ccccc3Cl)nnc2[nH]c1=O,-2.96,4.1,-7.39,-12.6,-11.9
Cc1cn(-c2cc(NC(=O)c3ccc(C)c(Nc4nccc(-c5cnccn5)n4)c3)cc(C(F)(F)F)c2)cn1,4.05,16.6,5.25,-5.04,4.02
CCCc1nc2c3ccccc3n(CC(=O)N3CCN(c4ccccc4OC)CC3)c(=O)n2n1,-5.86,-2.32,-4.84,-6.59,-9.41
Cc1nn2c(c1-c1ccccc1C(C)C)N(C(=O)c1cnccn1)CCC2,-2.88,-1.92,-0.397,1.76,-2.01
C=CCN1CCc2cc(O)c(O)cc2C(c2ccccc2)C1 (configuration not stated),-45.7,11.4,-19.4,-6.71,3.69
CC(C)NC(=O)c1ccc2c(=O)n(C(C)C)c3nn(Cc4ccc(F)cc4Cl)c(=O)n3c2c1,3.68,0.195,11.7,-4.08,5.55
CC(CN1C(=O)c2ccc(-c3ccco3)n2CC1(C)C(=O)NC1CCCCCC1)c1ccccc1 (configuration not stated),1.73,0,7.94,0.694,1.43
Cc1ccc(CSc2nnc3n(CCCOC(C)C)c(=O)c4cc(Cl)ccc4n23)cc1,-5.1,4.53,2.98,-13.3,0.955
CC1CN(c2ccccc2C#N)C(=O)CN1C(=O)c1ccc2c(c1)OCCO2 (configuration not stated),-3.48,-6.33,0.178,-8.29,-2.21
CN1c2ccccc2C(=O)N2CCc3c([nH]c4ccccc34)C21 (configuration not stated),-11.2,1.38,-5.22,-19.6,-8.99
Cc1ccccc1Cn1nc2n(CC(C)C)c(=O)c3ccccc3n2c1=O,9.9,2.59,12.7,8.88,10.6
COc1ccc(N2CCN(S(=O)(=O)c3cc4c(cc3Cl)n(C)c(=O)n4C)CC2)cc1,8.49,0,11.6,-0.114,-0.009
Cc1ccc2n1CCN(C(=O)Nc1ccc(F)cc1)C2C(C)C (configuration not stated),13.4,0.407,6.71,0.438,6.84

Compound,"activity change, negative = inhibition [1] [%]","activity change, negative = inhibition [2] [%]","activity change, negative = inhibition [3] [%]","activity change, negative = inhibition [4] [%]","activity change, negative = inhibition [5] [%]"
Cc1[nH]nc2ccc(-c3cncc(OC[C@@H](N)Cc4ccccc4)c3)cc12,-38,-23.9,-74.9,-57.6,-33.9
COC1CCCOC12CCN(C(=O)CCn1c(C)nc3ccccc31)CC2 (configuration not stated),-2.18,-2.95,-1.82,-3.22,-23.9
CC1CCCCC1NC(=O)CCn1ccc2cc(S(=O)(=O)N3CCCC3)ccc21 (configuration not stated),7.46,0.922,7.35,13.1,7.02
COc1ncc(-c2ccc3c(Nc4cc(Oc5cc(F)cc(F)c5)cc(C(=O)O)c4)c(S(=O)(=O)NC4CC4)cnc3c2)c(OC)n1,-24.1,-1.21,-19.1,-50,-13.3
Cc1nc2ccccc2n1CCNS(=O)(=O)c1ccc(F)cc1,-1.32,0,2.07,1.88,4.39
CCNC(=O)c1ccc2c(c1)OCCN(c1cccc(OC(F)(F)F)c1)C2,-6.89,-5.1,-0.926,-18.6,-9.21
CSc1ccc(CNC(=O)c2cc3n(n2)CC(C)(C(=O)NCc2ccc(F)cc2)N(C)C3=O)cc1 (configuration not stated),3.03,0,-6.49,-4.29,4.03
Cc1cc(C)n(Cc2cccc(C(=O)N3Cc4ccccc4C(O)C3)c2)n1 (configuration not stated),-3.9,0.998,-0.17,-0.781,7.08
CCCN1C(=O)c2c(C(=O)NCc3cccc(C)c3)ncn2CC1(C)C(=O)NCCC(C)C (configuration not stated),0.069,0,9.08,4.65,8.23
CNC(=O)[C@@H]1C[C@H](Oc2ccccc2)CN1S(=O)(=O)Cc1ccccc1F,-3.96,-7.48,0.405,-6.34,-1.97
COc1ccc(C(=O)N2CC(N(C3CCOCC3)S(C)(=O)=O)C2)cn1,-2.85,-3.43,-1.12,-11.5,-6.31
CC#CCn1c(N2CCCC(N)C2)nc2c1c(=O)n(Cc1nc(C)c3ccccc3n1)c(=O)n2C (configuration not stated),-0.37,–,0.925,–,–
NCCCS(=O)(=O)O,-5.58,-0.207,0.082,-5.6,6.89
COC[C@@H]1OC[C@@]2(C)C3CC[C@@H](O)[C@@H](CC(=O)N4CCCCC4)[C@]3(C)CC[C@H]2O1 (some centres not stated),-0.935,-1.31,-3.52,-2.28,-0.511
CC1(C(=O)NC2CCCCCC2)Cn2c(ccc2-c2ccco2)C(=O)N1CCCc1ccccc1 (configuration not stated),-2.21,0,6.17,5.66,1.88
CC(C)CCn1c(=O)c2ccc(C(=O)NCC(C)C)cc2n2c(=O)n(CC(=O)c3ccccc3)nc12,0.845,7.19,2.69,-2.43,3.42
CCC(C)NC(=O)c1ccc2c(=O)n(C(C)C)c3nn(CC(=O)c4ccccc4)c(=O)n3c2c1 (configuration not stated),6.16,1.77,7.81,4.16,6.03
O=C(O)C1(c2ccc(-c3ccc(Cl)c(Cl)c3)c(F)c2)CC1,-31.2,-20.6,-7.83,-46.5,-9.07
CCOc1ccc(CCNC(=O)CCc2nnc3n(Cc4ccccc4Cl)c(=O)c4ccccc4n23)cc1,-5.12,1.45,-0.86,7.41,-4.07
COCCCNC(=O)c1cc2n(n1)CC(C)(C(=O)NCc1ccc(F)cc1)N(C)C2=O (configuration not stated),1.17,-1.44,-4.17,-2.32,-3.31

Compound,"activity change, negative = inhibition [1] [%]","activity change, negative = inhibition [2] [%]","activity change, negative = inhibition [3] [%]","activity change, negative = inhibition [4] [%]","activity change, negative = inhibition [5] [%]"
NC(=O)CN1CCC(c2nc(-c3ccc4nc[nH]c4c3)no2)CC1,-3.11,2.38,1.43,-3.6,1.28
O=C(CC1CCOC2(CCN(S(=O)(=O)c3ccccc3)CC2)C1)N1CCOCC1 (configuration not stated),0.083,0,0.248,0.084,3.03
CCOC(=O)c1cc2n(n1)CC(C)(C(=O)NC1CCCCC1)N(Cc1ccc(C)cc1)C2=O (configuration not stated),0.027,0.986,-10.9,-1.04,0.675
O=C1Nc2ccc(Cl)cc2[C@@](C#CC2CC2)(C(F)(F)F)O1,-1.93,-2.14,-6.95,-59.6,-12.4
CCCCC1C(=O)N(C)CCN1c1nc2c(s1)c(C)nn2C (configuration not stated),-9.45,-9.71,-7.28,-17.9,-8.87
C=C(C(=O)OC[C@H]1O[C@@H](OC(=O)/C=C/c2ccccc2)[C@H](O)[C@@H](O)[C@@H]1O)C(O)CO (some centres not stated),-4.36,-5.71,8.72,-17.5,-12.2
CCNc1ncnc2sc3c(c12)CCN(Cc1ccco1)C3,-24.5,-7.92,-12.2,-36.2,-14.4
CC(C)NC(=O)c1ccc2c(=O)n(Cc3ccccc3)c3nn(CC(=O)NC4CCCC4)c(=O)n3c2c1,-5.27,-2.23,-2.2,-5.43,-3.6
O=C(c1cnn2cccnc12)N(Cc1ccncc1)Cc1cccc(OCCc2ccc(F)cc2)c1,-8.64,-7.58,-5.29,-12.4,-2.55
COc1ccc(CCN2C(=O)c3ccccc3CC2(C)C(=O)NC2CCCCC2)cc1OC (configuration not stated),-2.56,1.28,10.3,4.78,2.25
COc1ccc(CCN2C(=O)c3cc4oc(C)cc4n3CC2(C)C(=O)NC2CCCCC2)cc1OC (configuration not stated),-2.27,0.809,0.599,-64.3,-2.69
COCCNC(=O)[C@@H]1CCC[C@@H](NC(=O)c2c(-c3ccccc3)noc2C)CN(C)C(=O)C1,-1.59,-0.876,-0.695,-5.78,-1.12
Cc1ccc(NC(=O)N2CCC(c3noc(COCC4CC4)n3)CC2)cc1F,-5.55,-6.7,-1.72,-4.68,1.44
COc1cc(CCc2cc(NC(=O)c3ccc(N4CC(C)NC(C)C4)cc3)n[nH]2)cc(OC)c1 (configuration not stated),-4.56,–,-18.8,–,–
Cn1nc(N2CCC(NS(=O)(=O)c3ccc4c(c3)CCC4)CC2)ccc1=O,-3.06,-4.07,-2.46,-14.1,-26.2
CCOc1nc2cccc(C(=O)O)c2n1Cc1ccc(-c2ccccc2-c2nn[nH]n2)cc1,-5.25,-1.84,6.62,-16.3,-3.82
O=C([C@@H]1C[C@H](Oc2cccnc2)CN1C(=O)c1cc2ccccc2[nH]1)N1CCCC1,-1.06,6.09,1.84,0.02,7.13
CCn1c(CO)nnc1C1CC(NC(=O)c2oc3cc(OC)ccc3c2C)C1 (configuration not stated),-10.3,-8.47,-4.12,-17.8,-14.7
CCCn1c(=O)c2ccc(C(=O)NC3CCCC3)cc2n2c(=O)n(CC(N)=O)nc12,-2.5,0,3.25,0.073,2.35
CCCCN1CCCC[C@H]1C(=O)Nc1c(C)cccc1C,-0.817,2.48,7.76,-11.5,4.22
